# Laboratory results from PMC4336329 (PLoS ONE, 2015).
# The campaign covered roughly 310,000 compounds. About 2,200 (0.71%) showed an effect of 50% or more. Effects have a minus sign here. The list shows a part of the results.
# Molecular target: human ether-à-go-go-related gene (hERG) potassium channel (human, UniProt Q12809)
# Experiment: primary screen, population patch clamp on CHO cells stably expressing hERG
# Chain of human ether-à-go-go-related gene (hERG) potassium channel (Q12809 whole entry, looked up): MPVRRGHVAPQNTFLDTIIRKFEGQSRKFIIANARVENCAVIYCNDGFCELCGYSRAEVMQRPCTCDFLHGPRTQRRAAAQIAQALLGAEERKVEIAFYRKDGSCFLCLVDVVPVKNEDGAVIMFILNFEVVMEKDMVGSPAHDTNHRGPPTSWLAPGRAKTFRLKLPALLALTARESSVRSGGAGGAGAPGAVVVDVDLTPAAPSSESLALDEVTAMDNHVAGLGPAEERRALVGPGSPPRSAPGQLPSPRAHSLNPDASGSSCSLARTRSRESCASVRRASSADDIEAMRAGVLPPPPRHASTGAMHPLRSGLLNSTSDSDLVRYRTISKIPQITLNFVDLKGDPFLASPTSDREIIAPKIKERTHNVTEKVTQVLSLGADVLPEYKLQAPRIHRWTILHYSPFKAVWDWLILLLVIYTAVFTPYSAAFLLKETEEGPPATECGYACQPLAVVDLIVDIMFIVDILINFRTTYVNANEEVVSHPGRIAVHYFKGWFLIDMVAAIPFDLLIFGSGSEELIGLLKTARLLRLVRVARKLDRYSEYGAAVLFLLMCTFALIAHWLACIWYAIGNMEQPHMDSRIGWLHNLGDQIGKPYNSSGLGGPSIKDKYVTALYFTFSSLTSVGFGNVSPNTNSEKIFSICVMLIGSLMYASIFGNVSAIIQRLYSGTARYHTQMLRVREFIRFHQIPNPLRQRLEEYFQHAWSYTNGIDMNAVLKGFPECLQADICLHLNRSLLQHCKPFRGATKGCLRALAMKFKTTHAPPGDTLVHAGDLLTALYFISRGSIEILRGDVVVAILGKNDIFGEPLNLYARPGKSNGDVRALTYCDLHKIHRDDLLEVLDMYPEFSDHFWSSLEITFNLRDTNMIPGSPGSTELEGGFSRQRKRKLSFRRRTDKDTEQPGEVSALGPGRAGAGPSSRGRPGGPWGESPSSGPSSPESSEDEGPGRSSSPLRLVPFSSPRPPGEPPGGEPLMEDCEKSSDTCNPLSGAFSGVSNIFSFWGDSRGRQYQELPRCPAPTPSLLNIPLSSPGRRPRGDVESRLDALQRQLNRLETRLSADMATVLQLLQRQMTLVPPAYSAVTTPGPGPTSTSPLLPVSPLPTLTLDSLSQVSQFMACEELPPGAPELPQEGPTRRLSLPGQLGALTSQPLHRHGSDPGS
row,SMILES,"hERG current change (%, negative = inhibition) at 1uM"
1,CN(C)S(=O)(=O)c1cccc(NC(=O)/C=C/c2ccccc2[N+](=O)[O-])c1,9.75%
2,O=C1C2C3C=CC(C3)C2C(=O)N1c1n[nH]c(-c2ccccc2)n1 (stereo not drawn),-0.114%
3,COc1ccc(S(=O)(=O)NCC2CCCN(C(=O)c3cccs3)C2)cc1 (stereo not drawn),7%
4,CCOC(=O)N1CCN(C(=O)c2oc(=O)c3ccccc3c2-c2ccc(C)cc2)CC1,-3.27%
5,Cl.O=C(CN1CCN(c2ncccn2)CC1)N(Cc1ccccc1)c1ccc(F)cc1,1.82%
6,Cc1cccc(/C=N/NC(=O)c2cc(-c3cccnc3)nc3c2c(C)nn3-c2ccccc2)c1,-3.85%
7,COc1ccccc1CNC(=O)c1ccncc1,16.6%
8,CCN(CC)C(=O)c1ccc(N)cc1,9.68%
9,COc1cc(CO)cc(-c2cc(CO)cc(OC)c2OC)c1OC,10.5%
10,Cc1cccc(C(=O)OCC(=O)N2CC(C)OC(C)C2)c1C (stereo not drawn),19.1%
11,CCOc1cc(/C=C2\SC(=N)N(c3nonc3N)C2=O)ccc1OCC(N)=O,8.13%
12,O=C(Nc1ccc(-c2nnc(-c3ccco3)o2)cc1)C(c1ccccc1)c1ccccc1,12.8%
13,CCOc1ccc(Nc2oc(-c3ccco3)nc2C#N)cc1,8.43%
14,CC1(C)C2([N+](=O)[O-])CN3CC1([N+](=O)[O-])CN(C2)C3c1cccnc1 (stereo not drawn),11.8%
15,CCN1CCN(S(=O)(=O)c2ccc(F)c(C(=O)Nc3c(F)cc(F)cc3Br)c2)CC1,4.96%
16,CCn1c2ccccc2c2cc(C#N)c(N)nc21,-0.12%
17,COC(=O)c1sc(N)c(C(=O)OC)c1COC(=O)CCNS(=O)(=O)c1ccc(C)cc1,8.17%
18,O=C(O)CC1NC(=O)N(c2ccc(Cl)cc2)C1=O (stereo not drawn),13.6%
19,Cc1cccc(NC(=O)NNC(=O)COc2ccc([N+](=O)[O-])cc2)c1C,7.92%
20,CCCN1CCN(C(=O)CCCNC(=O)Cn2cnc3sc(C)c(C)c3c2=O)CC1,12.7%
21,CC(=O)c1ccccc1NC(=O)COC(=O)c1ccccc1NC(=O)c1ccccc1,7.74%
22,COc1ccc(OC)c(C2=NOC(C(=O)NCc3cccnc3)C2)c1 (stereo not drawn),-41.8%

row,SMILES,"hERG current change (%, negative = inhibition) at 1uM"
1,CCOC(=O)C(/C=C(\C#N)C(=O)OCC)=C(/N)N1CCN(c2ccc(OC)cc2)CC1,7.82%
2,COc1ccc(N(C(=O)c2ccco2)C(C(=O)NC2CCCC2)c2cccs2)c(OC)c1 (stereo not drawn),9.69%
3,CCN(CC)S(=O)(=O)c1cc(C(=O)O)c(Cl)cc1Cl,15.3%
4,CCOc1ccc(N2C(=O)c3cccnc3C2Nc2ccc(F)cc2)cc1 (stereo not drawn),-1.95%
5,CCOc1ccc(C(=O)NCC(=O)NCC(c2ccc(OC)cc2)N2CCCC2)cc1 (stereo not drawn),8.63%
6,CC12CC3CC(C)(C1)CC(C(=O)NCc1cccnc1)(C3)C2,6.55%
7,CC(=O)Nc1ccc(S(=O)(=O)N2CCSC2c2ccc(C)cc2)cc1 (stereo not drawn),16.2%
8,CCCS(=O)(=O)Nc1ccc2cn[nH]c2c1,6.45%
9,c1ccc(CNc2ncnc3c2cnn3Cc2ccccc2)cc1,-4.81%
10,CCN(CC)S(=O)(=O)c1ccc(/C=C/C(=O)OCC(=O)NCc2cccs2)cc1,7.68%
11,Cc1ccc(S(=O)(=O)Nc2cc(=O)[nH]c3c2CCC3)cc1,10.1%
12,COCCCn1c(SCC(=O)NC2CCS(=O)(=O)C2)nnc1-c1ccc(Cl)cc1 (stereo not drawn),8.65%
13,CC(=O)N/C(=C\c1ccccc1)C(=O)OCC(=O)c1ccc(F)cc1,6.18%
14,O=C(Nc1ccc(Cl)cc1)N(C1=NCCC1)c1ccc(OC(F)F)cc1,8.08%
15,O=C(NC(Cc1ccccc1)C(=O)O)/C(=C/c1ccco1)NC(=O)c1cccc(Br)c1 (stereo not drawn),12%
16,CC1CCN(C(=S)NC2CC3CCC2C3)CC1 (stereo not drawn),6.21%
17,O=C(CSc1nc(=O)n2cc(Cl)ccc2n1)NCCc1ccccc1,-13.6%
18,COc1ccccc1N1CCN(c2ccc3ccccc3n2)CC1,3.32%
19,COc1ccccc1C(C)NCC(=O)Nc1ccccc1C(F)(F)F.O=C(O)C(=O)O (stereo not drawn),8.84%
20,CCCc1nn(C)c(C(=O)Nc2cccc3ccccc23)c1Cl,10.4%
21,CC(C)c1ccc(/C=C2\SC(=O)N(CC(=O)NC3CCS(=O)(=O)C3)C2=O)cc1 (stereo not drawn),13.6%
22,CCC(=O)NCCc1nc2cc(NC(=O)Nc3ccccc3)ccc2n1C,13.5%

row,SMILES,"hERG current change (%, negative = inhibition) at 1uM"
1,O=C(OCc1csc(Nc2ccccc2)n1)c1ccc(Cl)cc1,3.45%
2,C=CCNC(=O)c1nn2cccnc2c1Cl,8.12%
3,COC(=O)Cn1cc(C(=O)c2cccs2)c2ccccc21,5.94%
4,COc1ccc(-c2nnc(SCc3ccc(C(=O)O)cc3)o2)cc1OC,13.4%
5,Cc1ccccc1Cn1cc(NC(=O)CSc2nc3c(c(C(F)(F)F)n2)CCc2ccccc2-3)cn1,3.67%
6,CC(=O)c1c(C)[nH]c(C(=O)COc2cc(C)ccc2C(C)C)c1C,13.5%
7,O=C(O)CC(NC(=O)C12CC3CC(CC(C3)C1)C2)c1ccc(OC2CCCC2)cc1 (stereo not drawn),10.7%
8,COc1ccccc1C1(O)CC2CCC(C1)N2S(=O)(=O)c1ccc(C(C)=O)cc1 (stereo not drawn),8.81%
9,O=C(Nc1ccc(Cc2ccc(NC(=O)C3CC3)c(O)c2)cc1O)C1CC1,9.78%
10,CC(C)Nc1nc(-c2ccncc2)nc(-c2ccc(Cl)cc2)c1C#N,10.4%
11,Cc1ccc(C(=O)Nc2cccc(-c3ccc(N4CCOCC4)nn3)c2)cc1C,13.4%
12,COC(=O)COc1ccc2occ(C(C)=O)c2c1,7.84%
13,NC(=O)C1CCCN(C(=O)c2ccc3oc(Cc4ccc(Cl)cc4)nc3c2)C1 (stereo not drawn),17.1%
14,O=c1sc2ccccc2c(N2CCCCC2)c1[N+](=O)[O-],2.27%
15,O=C(Nc1nccs1)C1CC(=O)N(c2ccc(F)cc2)C1 (stereo not drawn),13.7%
16,O=C(CCCC(=O)c1ccccc1)NCCc1ccccc1F,12.4%
17,O=C(c1cnccn1)N1CCN(c2ccccc2)CC1,3.46%
18,Cc1cccc(NC(=S)N(C)C2CCCCC2)c1,7.08%
19,COc1ccc(NC(=O)NC(C)c2ccccc2)cc1 (stereo not drawn),15%
20,CCN(CC(=O)Nc1c(F)cccc1F)C(=O)CNC(=O)c1ccc2ccccc2c1,-0.444%
21,COc1ccc(S(=O)(=O)N2CCOCC2)cc1NC(=O)CC1CCCC1,3.14%
22,CCCCN(C(=O)CN1C(=O)C2CCCCC2C1=O)c1c(N)n(Cc2ccccc2)c(=O)[nH]c1=O (stereo not drawn),11.9%

row,SMILES,"hERG current change (%, negative = inhibition) at 1uM"
1,O=C(c1ccc2c(=O)n3c(nc2c1)CCCCC3)N1CCN(C(c2ccccc2)c2ccccc2)CC1,-9.16%
2,CCCCC(=O)NCCNC(=O)c1cc(OCC(F)(F)F)ccc1OCC(F)(F)F,10.3%
3,Cc1cccc(NC(=O)C2C3C=CC4(O3)C2C(=O)N(CCCN2CCCC2)C4C(=O)NC2CCCC(C)C2C)c1 (stereo not drawn),8.54%
4,Cc1cc(C)nc(SCc2nnc(SCC(=O)Nc3ccc(C)c(C)c3)n2Cc2ccco2)n1,5.47%
5,Cc1c(Cl)cccc1NC(=O)CNC(=O)c1ccco1,12.7%
6,CCCN(CCC)C(=O)CSc1ncccc1C(=O)O,11.6%
7,Cc1ccc2nc(SCCCCOc3ccccc3)[nH]c2c1,7.22%
8,COc1ccc(C)c2sc(N(CCN(C)C)C(=O)c3ccc4ccccc4c3)nc12.Cl,14.5%
9,CCOc1ccc(C(=O)NCC(=O)OCC(=O)N2CCC(C)CC2)cc1,-9.02%
10,O=C(C(c1ccccc1)c1ccccc1)N1CCOCC1,6.83%
11,COc1ccc(/C(N)=N/OC(=O)c2ccc3c(c2)OCO3)cc1OC,5.81%
12,CCOC(=O)c1cc2c(C)[nH]c(C)c2cc(C(=O)OCC)c1=O,7.73%
13,CCS(=O)(=O)N1Cc2ccccc2CC1C(=O)OCC(=O)N(C(C)C)C(C)C (stereo not drawn),9.39%
14,COc1ccccc1NC1=NC(C)(C)N=C(N)N1,15%
15,CN1C(=O)/C(=C/c2ccccc2Cl)Sc2ccc(C(=O)NCc3cccnc3)cc21,-6.36%
16,CCCN(C(=O)COC(=O)CNC(=O)c1ccc2ccccc2c1)c1c(N)n(Cc2ccccc2)c(=O)[nH]c1=O,9.61%
17,C/C=C(\C)CN1CCN(c2ccccc2F)CC1,5.34%
18,O=[N+]([O-])c1cccc(/C=N/Nc2nccnc2Cl)c1,-3.54%
19,COc1ccccc1CNc1ncnc2sccc12,21.3%
20,Cc1ccc(OCc2nnc(SCC(N)=O)n2N)cc1,9.26%
21,COC(=O)[C@@]1(Cc2ccc(F)cc2)[C@H]2c3cc(C(=O)N(C)C)n(Cc4ccccc4)c3C[C@H]2CN1C(=O)c1ccccc1,3.31%
